The values that follow come from paper PMC12136788.

B1: chr7:141445308:141445309:+_ENSG00000106028_ENST00000265304|hu_hu|hu_hu_hu_mus_False|38_58 (ssRNA)
RNA: GGGAGUUCUACAGUCCGACGAUCUAUGAUUGUUGUUGCUUGCCGCCUCACAUUGUUUUUAUCCAUGUACUCGCCAUAGUCUAUUUUCCCUUCCACAUAAAUUCGAGCCCCCUUUUUCACAUACUGAUAUGCCACAUCUCUGAGCAACAGAGGAUUGAGCAUCA
B2: 120740698_120742171_2696_CDS_ENSMUSG00000027272_ENSMUST00000028728|mouse|control|control (ssRNA)
RNA: GGGAGUUCUACAGUCCGACGAUCCAGGUUGACUACUUUGCUGAAAGCAGGGCAGAACUCCGGAGGAGGUGGCGGCGGCAAUGCUUCAUCUUUAUUUUCUUGUUUUCUCCUUUUCUUCUGCAUAUGUUCAGCCUUGCUAUGCUGCAACAGAGGAUUGAGCAUCA
B3: chr7:107556079:107556080:+_ENSG00000091140_ENST00000440410|hu_hu|FALSE|FALSE (ssRNA)
RNA: GGGAGUUCUACAGUCCGACGAUCAUCAAUUUUUCCAUCUGACUUCUUGGUAGCACCAGUAACCUUUGUAUUCAAUUUAAAUUUAAACCCCUGUUUUUGAAGGAUGCGUUGAAAGUUUUUAGAUAUCUCCAUAUCAAUUCCAACCAACAGAGGAUUGAGCAUCA
B4: 170108172_170108863_2360_3pUTR_ENSG00000136603_ENST00000458537|human|control|control (ssRNA)
RNA: GGGAGUUCUACAGUCCGACGAUCGUUCCUUCAUAGAUUUUGAACUACUCAACAUUUUUACUUCCAUCUGAAGUUGUUGCUUCUUUUGCAAAAUCAAGUUUAGUUUUUCCUGUUGUUUUAAAUAAGUUCUCAUUACUUCUUCCACAACAGAGGAUUGAGCAUCA
B5: chr3:148802587:148802588:-_ENSG00000071794_ENST00000310053|hu_mus|hu_hu_hu_mus_False|48_108 (ssRNA)
RNA: GGGAGUUCUACAGUCCGACGAUCUCCAACCACAUGACCUCUCAUAGUUCCAAAUAAAACCAAAUCUUGCUCUUCAUCACUCGUUAGAAAGUCAUCUGGAGGAAUAAUGUCUUGGAAUUCAAAAUGUGGCAAGAAAGUUGAGUACAACAGAGGAUUGAGCAUCA
B6: chr4:104905227:104905228:+_ENSMUSG00000028517_ENSMUST00000064139|mus_hu|motif|central (ssRNA)
RNA: GGGAGUUCUACAGUCCGACGAUCACAAAAUGGAACCUUACAAAAAUACUGACAAUUUAAUGUUUUUAUACAGUUUUCUCGGGUUGCAGUUAUUUCAUUAUAAAACAAUGUCUACCACAGAACUAUGAUAUUUUAGUUGAUAUUCAACAGAGGAUUGAGCAUCA
B7: chr11:86518203:86518204:-_ENSMUSG00000047126_ENSMUST00000103186|perfect_dup|motif|central (ssRNA)
RNA: GGGAGUUCUACAGUCCGACGAUCGAACAGCUCCAGGUGCUCCCUCAUUUUCUGAGGCUUAAAUUUAGAGUAUAGAAUAGCGGAUUCAGUAAACAUUCCCAUGUGAGCUCGCUCAAGUCCCAGUGCUGCUUCCAACAUGGUGAUCAACAGAGGAUUGAGCAUCA
B8: chr16:94690422:94690423:+_ENSMUSG00000040785_ENSMUST00000117648|mus_hu|motif|central (ssRNA)
RNA: GGGAGUUCUACAGUCCGACGAUCUGUGACCAGAAUUCAUGGUUCUAUAUUUACCACUGUCUAAAAGUCACAAAACAAUAUCGGAUUUUUUCAUGGUUUCUAAUGCAGUUACAGUUUUGUUCUUAGGUCACAGUACAAGACUGCCAACAGAGGAUUGAGCAUCA
B9: chr1:38489359:38489360:+_ENSG00000183520_ENST00000537711|hu_hu|motif|central (ssRNA)
RNA: GGGAGUUCUACAGUCCGACGAUCUAGUUAUGGUUACAAACCGGAAAACCAUGCCAUUUGGAGUAAUGGAAUUUGAAGUUACGGGAAAACGACAACAGAUUUUUGAUACAGAAUGACAAGGCUUAUCUAUAACACGUCAACGUUCAACAGAGGAUUGAGCAUCA
B10: 37437324_37437444_4351_3pUTR_ENSMUSG00000026915_ENSMUST00000028279|mouse|control|control (ssRNA)
RNA: GGGAGUUCUACAGUCCGACGAUCUAAGUGGAAUUUUCAUUACAAAAUGAAGGGUGGGACGGGCAAAAGGUGGGAGGACACUUAAUUCAUUACAGAAUUUAAACAAUUGAACUUGCAUGGUUACCACUUCUAACAUAGGGUCAACAACAGAGGAUUGAGCAUCA
B11: 80378380_80380382_1460_CDS_ENSMUSG00000027002_ENSMUST00000028386|mouse|control|control (ssRNA)
RNA: GGGAGUUCUACAGUCCGACGAUCCUCAGCAAUGUGCUUAUCUAUAAAGUCAUCUGCACUCUUCUUUGGCAUGUUGUCCGCGUGACGGAGCAGCCAGAUAAUUUCAUCACGGGCAAAAGAUAACGCCAUGAAAACAAAAAGUGCCAACAGAGGAUUGAGCAUCA
B12: chr7:91631701:91631702:+_ENSG00000127914_ENST00000356239|hu_hu|motif|central (ssRNA)
RNA: GGGAGUUCUACAGUCCGACGAUCUUCAUUUAGCUGAAUACAUUGUUGUUUGAGGUCCUCAUUUUCCUCUAUAAGUAUUUCGGUUUCUUUUUCCCACACAGAGUCUUUGGAUUUGGACUUAAUGGAGUCUAAGAAAAUCAAUCUCAACAGAGGAUUGAGCAUCA
B13: chr3:150289932:150289933:+_ENSG00000144895_ENST00000460851|hu_hu|hu_hu_hu_mus_False|8_18 (ssRNA)
RNA: GGGAGUUCUACAGUCCGACGAUCCUUGUAGUUUUUAACAUCCCAUACUUCCAUUUGUCCUCGAAGAUUUCCAAAUCCAGCCAGCACUAAUAUAUGUCCAUGAGGGCUAUAGAAGGCUGCAUUACGAGGACCAGUUCCAAAGUCCAACAGAGGAUUGAGCAUCA
B14: chr10:112362630:112362631:-_ENSMUSG00000074748_ENSMUST00000099276|mus_hu|FALSE|FALSE (ssRNA)
RNA: GGGAGUUCUACAGUCCGACGAUCAUGGACUACUUAUGCAAAAAUAAAAAUCUCCAAAACAAAGGACAGUGGUGAGCUUCACUACCCUCCCCCGAUGAUCCCAGCAUGCGAUAAUGCCAGGCAGUGGUCCCUGGGCAUGCGAUGCAACAGAGGAUUGAGCAUCA
B15: chr1:58468927:58468928:-_ENSMUSG00000026034_ENSMUST00000148330|mus_mus|mus_mus_mus_hu_False|18_108 (ssRNA)
RNA: GGGAGUUCUACAGUCCGACGAUCAAUCUAUAAUUACGAUGUUCAUUACCUUAGCUAUGUACUUAAUGAACCAAAUUACCCAAACAAAAUAAACAUGGCAAUAUAAAAAUGUUAAGAAAAUAACUUACUGUACAAAAUAACUUACAACAGAGGAUUGAGCAUCA
B16: chrX:102930994:102930995:-_ENSG00000123562_ENST00000441076|hu_mus|FALSE|FALSE (ssRNA)
RNA: GGGAGUUCUACAGUCCGACGAUCAUAAGCCCUGUUUUACACUGACAGUUUUAAAGAACAUCAAUUAUACCAUGAAAGGACUAAACAGAAGUGUUUACAGAUACCAGACAAUAGUGAGCGGUCAGUAGACCUUCACAGGGCUUUCAACAGAGGAUUGAGCAUCA
B17: chr1:150923288:150923289:+_ENSG00000143379_ENST00000271640|hu_mus|motif|central (ssRNA)
RNA: GGGAGUUCUACAGUCCGACGAUCCAAACAGAACAUCUCCAGGAACAGAAAGUCACAGCCAGUCUCAAAAAGGUAGCGCUCGGUCUCCUGCAUCGUCCGAAGGCAGAGACCACAGGGUGUCUUAUAGAUUACAUGAAAGCCCAUCAACAGAGGAUUGAGCAUCA
B18: chr15:30001172:30001173:-_ENSG00000104067_ENST00000400011|hu_hu|FALSE|FALSE (ssRNA)
RNA: GGGAGUUCUACAGUCCGACGAUCUGGUGGUCUGAAAGUUGCUGGCUUAUUCUGAGAUGGAGGUGGGUCUGGUUUGGACACUAAGGAAUUCUGAAAAUCCAAUGACACUGAAUUACCUUCACCAUGUGCUCCCUUAGAAUGUAUCAACAGAGGAUUGAGCAUCA
B19: chr11:46784615:46784616:-_ENSG00000175216_ENST00000415402|hu_mus|FALSE|FALSE (ssRNA)
RNA: GGGAGUUCUACAGUCCGACGAUCCUCAGUAAGAUGAUACUCUUCCUCACUCAGCAGGGUGAAAAGCAAUUUUAAAUAUUCCAGUGCUUUCAUUAGAACGCUUGUAUUGGUGUCGAAAAACCGGAGGGUAAGCCAUUUUAAGAUCAACAGAGGAUUGAGCAUCA
B20: chr1:171492454:171492455:+_ENSG00000117523_ENST00000367742|hu_hu|FALSE|FALSE (ssRNA)
RNA: GGGAGUUCUACAGUCCGACGAUCAUCAGCUUCAGCAUCUAGGUUAUCAAAUUUAUCAAGCUCCUUCAGUUCUGAUGCACUAAGAAUGGAUGGGCGUUCAGGCUCAGAGGCCCAUGAAGGAGGUGGGCCUCUUCCUCGAAGGCCCAACAGAGGAUUGAGCAUCA
B21: chr1:39494564:39494565:+_ENSG00000168653_ENST00000372967|hu_hu|hu_hu_hu_mus_True|18_78 (ssRNA)
RNA: GGGAGUUCUACAGUCCGACGAUCAUGCAUUCGCCUCAUCGUUUUGUACCGAAGCAAACACUCUACGAAGUCAUCGAACUCUAUCUUGCACUCCUUUUUCGCCCGGGUCCCACCGAUUCCAUGUGCACACUCUAUCCACUCUUUCAACAGAGGAUUGAGCAUCA
B22: chr16:94664741:94664742:+_ENSMUSG00000040785_ENSMUST00000117648|mus_hu|mus_mus_mus_hu_False|18_58 (ssRNA)
RNA: GGGAGUUCUACAGUCCGACGAUCUGGUACUGAUCUUGGUAGCUGAUAUUCAGGAGAAAGGCUGGCCAAGGGUGUAUAAAUGCUAGUGUACUGGGGCAAACCUGGUAACACGUUUAUGUACGCUGGUGGUGUCUGGGUGAUAUCCAACAGAGGAUUGAGCAUCA

The list shows a part of the results.

This assay addresses T1, UNK ZnF1-3 (human, UniProt Q9C0B0 31-174).
T1 sequence: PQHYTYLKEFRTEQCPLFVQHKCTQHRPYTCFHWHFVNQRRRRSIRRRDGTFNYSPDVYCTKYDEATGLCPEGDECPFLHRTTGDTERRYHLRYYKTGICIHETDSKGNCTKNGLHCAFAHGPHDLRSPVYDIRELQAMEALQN
Kind of assay: nsRBNS (natural sequence RNA bind-n-seq); RBNS binding buffer (assumed for nsRBNS): 25 mM Tris pH 7.5, 150 mM KCl, 3 mM MgCl2, 0.01% Triton X-100, 500 ug/ml BSA, 20 U/ml SUPERase-In, 4 C; UNK is unkempt and MSI1 is Musashi-1; names of the RNAs are library labels; protein concentration not given here; high values mean tight binding.
B1 displayed a binding signal of 0.538 enrichment R.

Molecule B2 showed a binding signal of 0.54 enrichment R.

B3 yielded a binding signal of 1.32 enrichment R.

B4 had a binding signal of 0.312 enrichment R.

B5 registered a binding signal of 1.38 enrichment R.

B6: the binding signal amounted to 0.884 enrichment R.

B7: the binding signal stood at 0.775 enrichment R.

B8 returned a binding signal of 0.223 enrichment R.

Regarding B9, the binding signal was 1.28 enrichment R.

In the case of B10, the binding signal stood at 1.74 enrichment R.

B11 had a binding signal of 1.2 enrichment R.

As for B12, the binding signal turned out to be 0.446 enrichment R.

In turn, B13 displayed a binding signal of 0.991 enrichment R.

For B14, the binding signal is 1.24 enrichment R.

For B15, the binding signal amounted to 1.32 enrichment R.

The molecule B16 gave a binding signal of 1.21 enrichment R.

Molecule B17 gave a binding signal of 1.33 enrichment R.

Consider B18, for which the binding signal was determined as 1.09 enrichment R.

B19 yielded a binding signal of 1.29 enrichment R.

As for B20, the binding signal was 1.1 enrichment R.

For the molecule B21, the binding signal came out at 0.651 enrichment R.

B22 returned a binding signal of 0.989 enrichment R.
